Source: the antibiotic and cytotoxicity screens of Wong et al. (2023)
The other results are listed elsewhere or left out.

Legend:
HSkMC = human skeletal muscle cells; assay: cytotoxicity call (relative viability < 0.9); conditions: 10 µM
HepG2 = assay: cytotoxicity call (relative viability < 0.9); conditions: 10 µM
S. aureus RN4220 = assay: growth inhibition call (relative growth <= 0.2); conditions: 50 µM

C[C@@H]1CN([C@H](C)CO)C(=O)c2cc(NS(=O)(=O)c3cn(C)cn3)ccc2O[C@@H]1CN(C)Cc1ccccc1
inactive: cytotoxicity call (HSkMC) | cytotoxicity call (HepG2) | growth inhibition call (S. aureus RN4220)

C[C@H](NC(=O)C[C@@H]1C=C[C@H](NC(=O)CN2CCOCC2)[C@@H](CO)O1)c1ccccc1
inactive: cytotoxicity call (HSkMC) | cytotoxicity call (HepG2) | growth inhibition call (S. aureus RN4220)

COCCNC(=O)C[C@@H]1CC[C@H]2[C@@H](COC[C@H](O)CN2C(=O)Nc2ccccc2OC)O1
inactive: cytotoxicity call (HSkMC) | cytotoxicity call (HepG2) | growth inhibition call (S. aureus RN4220)

CC(C)NC(=O)Nc1ccc2c(c1)C(=O)N(C)[C@@H]1CC[C@@H](CC(=O)NCc3ccc(F)cc3)O[C@H]1CO2
inactive: cytotoxicity call (HSkMC) | cytotoxicity call (HepG2) | growth inhibition call (S. aureus RN4220)

C=C(C)[C@@H]1CC[C@]2(COC(C)=O)CC[C@]3(C)[C@H](CC[C@@H]4[C@@]5(C)CC[C@H](OC(C)=O)C(C)(C)[C@@H]5CC[C@]43C)[C@@H]12
inactive: cytotoxicity call (HSkMC) | cytotoxicity call (HepG2) | growth inhibition call (S. aureus RN4220)

CC(C)NC(=O)Nc1cccc2c1O[C@@H](CN(C)S(=O)(=O)c1ccc(F)cc1)[C@H](C)CN([C@H](C)CO)C2=O
inactive: cytotoxicity call (HSkMC) | cytotoxicity call (HepG2) | growth inhibition call (S. aureus RN4220)

CCNC(=O)[C@@H]1[C@@H](CO)[C@@H]2Cn3c(ccc(-c4ccccc4OC)c3=O)[C@@H]2N1S(C)(=O)=O
inactive: cytotoxicity call (HSkMC) | cytotoxicity call (HepG2) | growth inhibition call (S. aureus RN4220)

Cc1ccc(S(=O)(=O)N(C)C[C@H]2Oc3ncc(Br)cc3C(=O)N([C@@H](C)CO)C[C@H]2C)cc1
inactive: cytotoxicity call (HSkMC) | cytotoxicity call (HepG2) | growth inhibition call (S. aureus RN4220)

O=C(O)C[C@](O)(Cc1ccc(O)cc1)C(=O)O
inactive: cytotoxicity call (HSkMC) | cytotoxicity call (HepG2) | growth inhibition call (S. aureus RN4220)

CC(C)(C)[S@](=O)N1Cc2cc(C(=O)NCCc3ccncc3)nc(-c3cccc(-c4cccc(C#N)c4)c3)c2[C@@H]1CCO
inactive: cytotoxicity call (HSkMC) | cytotoxicity call (HepG2) | growth inhibition call (S. aureus RN4220)
